Sequences with one replicate were seen in a single cluster, so their values are uncertain.
System: ATP
Experiment: switch fluorescence ratio, 500 uM ATP over buffer (Cy3 cluster intensity, sum of 5 cycles each) (fold (ratio)); higher = stronger signal-on switching upon ATP binding; sequences stand for … in TCGTCGGCAGCGTCAGATGTGTATAAGAGACAGTTTTTTTTTTTTTTTTTTTTTTTTT…TC
Details: aptamer strand: ATP DNA aptamer (quencher-CACCTGGGGGAGTATTGCGGAGGAAGG + anchor), 100 nM annealed; ATP concentration: 500 uM; one replicate
Summary of the method: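 After annealing to 100 nM quencher-labelled ATP aptamer, Cy3-labelled switching-strand clusters on a modified Illumina MiSeq flow-cell were imaged in selection buffer. A second image followed after 15 min with 500 uM ATP at 22 °C, and five such buffer/ATP cycles were done, each separated by NaOH stripping and re-annealing. The fluorescence ratio, averaged per switch-domain sequence, is summed target-cycle over summed buffer-cycle Cy3 intensity per cluster, with clusters outside 100-1000 RFU excluded.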
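Note: ATP exposure 15 min at 22 °C before imaging.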

Sequence	switch fluorescence ratio
CGTTGGGAAA	0.962
TGTGGGGAGA	0.999
CGAGTTGAGT	1.01
TGGGCGTGGG	0.98
GCGAAGAACG	1.02
TGGATGTGC	0.993
CTTGACACGG	0.975
CGATCTTAGT	1.03
TTGGATTATT	0.923
CAAAAGCGGG	1
TCCTAGGGAC	1.09
GAAAGGATAC	1.05
AGAACGTACC	1.7
TGGAATTAAT	1.03
CCTGGTCCTT	0.94
AACGTTTCGA	1.03
CCTGTTATAT	1.03
GCTGTTATAT	0.97
TATGCTACCA	1.04
TACGCAGCCC	2.07
GTCGCAACGG	0.991
AGGATGAGCC	1.01
GCTGCTAGGC	0.976

Sequence	switch fluorescence ratio
GAAGCGATGG	3.93
GTTATTCCCA	1.05
TAGCACCCTC	0.992
TCGAATCGGG	1.02
ATAACGATGT	0.992
GACCAAAGTT	1.06
TCATTATACG	1.03
CGGTCACAGG	1.44
AAAAATGT	0.973
GATTTGGTGC	0.93
TGAACTGAAC	1.24
CAATCAAGTA	1.03
GGCGTCCCAA	0.996
AAGAGGGTTG	1.01
GCAACCGGTT	1
CTTATGGGGC	0.922
CAGGTGGGCA	0.96
GAAGCCTTCT	1.06
AATTTAGG	1.01
ACGCTGACAG	1.04
TAGGAGGATC	1.01
TCAGTGTGGA	1.04
TGCCCATGGC	1

Sequence	switch fluorescence ratio
GCTCTTCGCA	1.19
CAAGTTGAGT	0.994
GAGTTTATTT	1.01
AAAATTCGG	1.01
TAGGCGTTGA	1.1
GCACGGTATC	1.11
CAGCGTCTTC	0.947
TCCGCCTCG	1.17
GCGCGTTGTC	1.04
CTTGGTATCA	0.97
TTTCCGGAGT	2.36
CTCCTCTTCT	1.01
TCCTTTGGAA	1.06
AAGTGTTTTG	0.974
AATGCGGAAC	1.03
TCGACGTCTG	0.968
ATGAATTACG	1.04
ATGTGAAGAA	1.02
TTCACTTATT	1.03
CACGATTCGG	1.01
TTGCCCCGAC	1.04
AGGCTGCCCA	0.995
TCACTTTAAA	1.03

Sequence	switch fluorescence ratio
ACGATTGAGG	0.992
CAGCGGGATG	0.996
ATTGTCCTTT	1.04
TATGTTGGAA	0.972
AGATAACGGA	1.04
TCGCTGTCAC	1.77
CGAAGATACG	1.06
CAGTTGAAAT	0.985
ATCCAGAATA	0.977
AGCAGATTCA	0.956
ATTCTCTAAT	0.984
ATTGATAGGT	0.993
TTGGGTCACT	1.02
TTCCAAGCGC	1.02
CAGTGCTATA	1.05
TAGTGCAGAT	0.986
GAAATAAATG	0.93
TCATGCGTCT	0.917
CCCATCGGCT	1.03
GGCAGATCAA	0.998
ACACTTGGGC	1.01
TACCAACATA	1.06
TCTTAGTGCT	1.07

Sequence	switch fluorescence ratio
GTAAGCGTAC	1.66
TATTCTAAAC	1.03
TTGCTTTTCT	1
GGGAACCGAA	1.04
ATTCAGTGGC	0.968
TTCCCCCATG	3.29
AGTGGGGCCG	0.92
CGGGTATATA	1.03
ATACCGAAAC	1.15
GATTGTTTCA	0.985
TGGGACCTTT	1.02
GATTAAAGTG	0.976
GGAGCGCGTA	1.02
GACACTGCTA	1.26
TATTATAGA	1.01
CCAACATCTT	1
AGGCATTACC	1.08
TTGCGCGCTT	0.971
TTCCAGGGCG	1.01
GGTAGGCACT	1.02
GGTCGTCGT	1.06
TGGCTCCGAT	1.26
AACGTTCTTA	0.997

Sequence	switch fluorescence ratio
AGTAGATTGC	1.01
GTTGAGCCTC	0.973
CGGTTGAAGC	1.79
CGTCACACCA	1.12
ATTAGTTAGG	0.987
GGATTTTACC	1.03
GCATTTGCT	1.06
GCCTTGAGAG	0.985
TGGTTTATGT	1.01
GTCGTAGGCT	0.985
TGAGGCTCAT	0.987
CCGGGGATGG	1.04
TGCCAAATCC	1.03
CTGCCCCCGC	1.54
TAGAGTCTGT	1.02
GTAAGACGTC	0.995
TATGGGGTGA	0.971
GACGTATTAC	4.47
TCGGTTACG	1.01
CAATTTAGCT	1.01
AGATATAAGG	0.977
GGGGCTAACT	0.97
TCGTATCGCT	0.99

Sequence	switch fluorescence ratio
GACACACATG	1.02
CGGGATATGT	0.985
GAGAGTTAGG	0.986
TACGATCCTT	1.02
CAGCGAACGA	1.11
AAGGTGCAGC	0.985
ATACGATACT	1.39
TAATTAACGT	1.03
ACCTGGAGTG	1.08
GGTTAATTGC	0.884
CGGATTCGG	1.04
AAGGCCGGCC	1.09
ATTCAAATA	0.999
CGTAAAGTCC	1
TCCCCGGCCT	1.1
CCTAAGTATG	1.01
TCTTATCAGA	1.03
TTTATCGTCG	1.05
TAATGACCCT	1.08
